# Test results taken from PubChem BioAssay AID1159614 (National Center for Advancing Translational Sciences (NCATS), 2016).
# In all, about 45,000 compounds went through this assay and about 65 (0.1%) were called active. Calls come from the whole dose curve; as a rule, active = well fitted activation curve with a large enough effect; inconclusive = small, poorly fitted or top-dose-only effect; inactive = no such curve, though single readings can be large or run the other way. Some of the results follow.
# Biological target: Galactocerebrosidase (Homo sapiens) (UniProt P54803)
# Chain of UniProt P54803 (P54803 whole entry, looked up): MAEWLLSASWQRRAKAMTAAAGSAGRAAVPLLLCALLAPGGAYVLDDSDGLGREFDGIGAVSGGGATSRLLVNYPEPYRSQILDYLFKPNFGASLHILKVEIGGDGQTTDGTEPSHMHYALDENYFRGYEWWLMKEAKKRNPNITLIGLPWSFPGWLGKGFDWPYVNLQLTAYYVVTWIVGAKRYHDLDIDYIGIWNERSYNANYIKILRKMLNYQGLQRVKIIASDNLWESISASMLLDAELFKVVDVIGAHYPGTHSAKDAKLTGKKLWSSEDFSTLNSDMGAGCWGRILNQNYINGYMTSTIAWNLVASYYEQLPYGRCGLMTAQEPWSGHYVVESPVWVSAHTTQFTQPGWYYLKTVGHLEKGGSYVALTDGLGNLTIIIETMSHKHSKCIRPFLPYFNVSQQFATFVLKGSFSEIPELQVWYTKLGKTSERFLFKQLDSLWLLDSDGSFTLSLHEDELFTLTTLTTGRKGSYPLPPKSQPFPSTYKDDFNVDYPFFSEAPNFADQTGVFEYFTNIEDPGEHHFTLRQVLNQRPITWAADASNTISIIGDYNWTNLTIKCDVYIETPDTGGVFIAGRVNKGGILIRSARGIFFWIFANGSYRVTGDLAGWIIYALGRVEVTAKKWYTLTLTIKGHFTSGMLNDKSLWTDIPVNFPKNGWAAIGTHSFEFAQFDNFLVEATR
# Experiment: A Novel Cell-Based Assay to Identify Small Molecules for B -Galactocerebrosidase; note: 0% is about no effect; nearly all actives have a fitted effect of over 65% in size
# Conditions: 145M-Twi-hGALC-G270D cells (Twitcher mouse brain line with human GALC G270D), HMU-beta-Gal fluorescence, 48 h; series mostly up to 57.5 µM; activation: at the top concentration
# How it was run: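 Mutant human GALC (G270D), stably expressed in a Twitcher mouse brain cell line lacking endogenous GALC, is measured in live-treated cells via 6-hexadecanoylamino-4-methylumbelliferyl-β-galactoside hydrolysis (0.1 mM final, pH 5.2) with fluorescent detection.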
row,Compound,activation
1,CCCN(CCC)C(=O)Cn1c(=O)n(Cc2ccc(C(=O)NCCc3ccc(Cl)cc3)cc2)c(=O)c2ccccc21,inactive: 5.18%
2,COc1ccc(-c2nc(SCC(=O)Nc3ccc4c(c3)OCCO4)c(-c3ccccc3)[nH]2)cc1,inactive: -16.8%
3,CCc1ccc(NC(=O)Cn2c(=O)n(-c3cc(C)cc(C)c3)c(=O)c3oc4ccccc4c32)cc1,inactive: -24.5%
4,Cc1ccc(CSc2oc(-c3cccs3)nc2S(=O)(=O)c2ccc(C)cc2)cc1,inactive: -19.6%
5,COC(=O)CC1Oc2ccc(C)cc2-n2cc(-c3ccc(C)cc3)nc21 (stereo not given),inactive: -6.21%
6,COC(=O)c1ccccc1NC(=O)C1=C(C)C(=O)OC12CCC(C)CC2 (stereo not given),inactive: -2.7%
7,CCc1ccccc1NC(=O)c1ccc2c(c1)nnn2C1CCCC1,inactive: 6.96%
8,CCCNC(=O)c1ccc(Cn2c(=O)c3cccn3c3cccnc32)cc1,inactive: -4.17%
9,CCOc1ccccc1NC(=O)CN1C(=O)COc2ccc(S(=O)(=O)NC3CCCC3)cc21,inactive: -2.89%
10,Cc1ccc(CNC(=O)Cc2ccc(NC(=O)N3CCSc4ncccc43)cc2)cc1,inactive: -16.9%
11,O=C1CCCc2cc(S(=O)(=O)NCC3CCC(C(=O)NCc4ccc(F)cc4)CC3)ccc2N1 (stereo not given),inactive: 3.92%
12,CCOC(=O)c1c(C)c(-c2ccccc2)n(CC(=O)Nc2cc(C)cc(C)c2)c1C,inactive: -11.6%
13,Cc1ccc(N2CCN(S(=O)(=O)c3ccc(Cl)c4ccccc34)CC2)c(C)c1,inactive: -13.1%
14,O=C(Nc1cccc(C(F)(F)F)c1)c1cccc(C(=O)Nc2cccc(C(F)(F)F)c2)c1,inactive: -0.592%
15,COCCCNC(=O)CCCn1c(=O)c2cccn2c2ccccc21,inactive: -7.92%
16,COc1ccccc1CNC(=O)CCC1N=C2c3ccccc3N=C(SCc3ccc(Cl)cc3)N2C1=O (stereo not given),inactive: -20%
17,O=C(Cn1ncc2c(=O)oc3ccccc3c21)N1CCN(c2ccc(Cl)cc2)CC1,inactive: -17.9%
18,COc1cccc(CSc2nc(-c3ccccc3F)nc3c2Cc2c(CO)cnc(C)c2O3)c1,inactive: -10.8%
19,COc1ccc(-n2nc3c(N4CCC(C(=O)NCCc5ccccc5)CC4)nnc(C)c3c2C)cc1,inactive: -7.86%
20,O=C(CSc1nnc(-c2cccc(F)c2)c(-c2cccc(F)c2)n1)NC1CCCCC1,inactive: -6.53%
21,COc1cc(Cl)c(C)cc1NC(=O)c1cnn(-c2ccc(F)cc2F)c1C1CCN(C(=O)OC(C)(C)C)CC1,inactive: -9.07%
22,COc1ccc2cc(CNc3ccc(C)cc3)c(=O)n(CC(=O)Nc3cccc(Cl)c3C)c2c1,inactive: -21.7%
23,CC(C)(C)c1ccc(C(=O)N(Cc2ccc(F)cc2)Cc2ccco2)cc1,inactive: -11.4%
24,Cc1ccc(-c2nnc(Nc3ccccc3)c3ccccc23)cc1S(=O)(=O)N1CCN(C)CC1,inactive: -13.4%

row,Compound,activation
1,CCOC(=O)c1c(NC(=O)COc2ccccc2Br)sc2c1CCCCC2,inactive: -12.8%
2,CCN(CC)S(=O)(=O)c1nnc(NC(=O)c2ccc(Br)cc2)s1,inactive: -16.5%
3,COc1ccc(-c2nc(CSc3nnc(C)n4c3cc3oc(C)cc34)c(C)o2)cc1OC,inactive: -11.7%
4,O=C(c1cccs1)N(Cc1cccnc1)c1nc2c(F)cc(F)cc2s1,inactive: -2.2%
5,CCN(CCCNC(=O)c1ccc(Sc2ccc(Cl)cc2)c(NC(C)=O)c1)c1ccccc1,inactive: -2.33%
6,CCn1cc2nc(SCc3ccc(F)cc3)n(CCc3ccccc3)c(=O)c2n1,inactive: -11.3%
7,COc1ccc(CCNC(=O)C2CCCN(S(=O)(=O)c3ccc4c(c3)oc(=O)n4C)C2)cc1OC (stereo not given),inactive: -2.38%
8,O=S(=O)(c1ccccc1)c1nc(-c2cccc(Cl)c2)oc1N1CCOCC1,inactive: -10.3%
9,Cc1cc(NC(=O)Cn2c(=O)oc3cc(S(=O)(=O)N4CCCC4)ccc32)ccc1Br,inactive: -24.1%
10,CCC(=O)Nc1ccccc1-c1nc2ccccc2n(C(CC)C(=O)Nc2cccc(Cl)c2)c1=O (stereo not given),inactive: -9.64%
11,Cc1cc(C)c(Cn2c(=O)n(CCCCC(=O)NCc3ccccc3Cl)c(=O)c3ccccc32)c(C)c1,inactive: -11.4%
12,COc1ccc(NC(=O)C2=C(C)Nc3ncnn3C2c2ccc[nH]2)cc1 (stereo not given),inactive: -13.1%
13,CCOC(=O)c1c(C)sc(-c2c(-c3cccc(Cl)c3)[nH]c3c2c(=O)n(C)c(=O)n3C)c1O,inactive: -13.6%
14,Cc1ccc(CNC(=O)CCc2cn(Cc3ccc(C)cc3)c3ccccc23)cc1,inactive: -11.7%
15,Cc1ccc2c(Br)cc(Br)c(O)c2n1,inactive: -8.46%
16,CCOc1ccc(-c2cc3nc(C4CCN(C(=O)OC(C)(C)C)CC4)c(C(=O)Nc4c(C)cccc4C)cn3n2)cc1,inactive: -10.7%
17,C=Cc1ccc(Cn2ccn(-c3ccc(F)c(F)c3)c(=O)c2=O)cc1,inactive: -18.2%
18,COc1ccc(CCN2C(=O)c3[nH]nc(-c4ccccc4O)c3C2c2ccccc2)cc1 (stereo not given),inactive: -5.91%
19,CCc1ccccc1N(C)S(=O)(=O)c1ccc2c(c1)C(C)(C)C(=O)N2C,inactive: -4.77%
20,Cc1c(C(=O)N(C)C)sc2c1c(=O)n(-c1ccc(F)cc1)c(=O)n2Cc1ccccc1C#N,inactive: -9.68%
21,COc1cccc(NC(=O)c2csnn2)c1,inactive: -13.9%
22,Fc1ccc2c(c1)-c1c(cnc3cc(-c4ccc(Cl)cc4)nn13)CO2,inactive: 1.87%
23,CC(=O)N1CCc2cc(CNC(=O)Nc3ccc(Br)c(C)c3)ccc21,inactive: -8.09%
24,CC(=O)Nc1ccc(NC(=O)C2CCN(c3cnccn3)CC2)cc1,inactive: -6.58%

row,Compound,activation
1,N#Cc1ccc(C(=O)Nc2cc3nn(-c4ccccc4)nc3cc2Cl)c(F)c1,inactive: -3.82%
2,CCOC(=O)C1CCN(S(=O)(=O)c2cc(Br)cc3c2N(C(=O)CC)CC3)CC1,inactive: -0.248%
3,Cc1ccc(Cl)cc1NC(=O)c1cnc(N2CCCCC2)c2ccccc12,inactive: -3.11%
4,O=C(Cn1c(SCC(=O)Nc2ccc(F)cc2)nc2ccccc21)NCc1ccc(F)cc1,inactive: -6.82%
5,COc1ccc(S(=O)(=O)N(CC(=O)Nc2ccccc2Br)Cc2ccccc2)cc1,inactive: -15.7%
6,CC(C)OCCCn1c(=O)c2ccccc2n2c(-c3ccc(F)cc3)nnc12,inactive: -12.2%
7,CCCCCCCC/C=C/C(=O)O,inactive: -12.7%
8,Cn1c(=NC(=O)c2ccc(S(=O)(=O)N3CCCc4ccccc43)cc2)sc2cc(F)ccc21,inactive: 10.8%
9,Cc1ccc(S(=O)(=O)NC(=O)NC2CCCC2)cc1,inactive: -13.2%
10,Cc1cccc(C(=O)Nc2c(-c3ccccc3)nc3cc(C)ccn23)c1,inactive: -4.23%
11,COc1ccc(NC(=O)C(=O)NCCc2csc(-c3ccc(Cl)cc3)n2)cc1OC,inactive: -19.9%
12,COc1ccc(-c2nc3scc(CCNS(=O)(=O)c4ccc(C)cc4)n3n2)cc1,inactive: -4.73%
13,COc1ccccc1NC(=O)C(=O)NCC(c1ccc2c(c1)OCO2)N1CCN(C)CC1 (stereo not given),inactive: -15%
14,CCN1CCN(c2ncc3c(n2)CCN(Cc2cc(F)cc(F)c2)C3)CC1,inactive: -1.37%
15,CCOc1cc2sc(N3CCC(C(=O)Nc4ccc(C)cc4C)CC3)nc2cc1Br,inactive: -17.4%
16,CN(C)c1ccc(C(CNC(=O)c2ccccc2)N2CCc3ccccc32)cc1 (stereo not given),inactive: -10.9%
17,CCc1ccc(CN(Cc2ccco2)c2cnc(S(C)(=O)=O)nc2C(=O)Nc2cccc(C)c2)cc1,inactive: -7.47%
18,COC(=O)c1ccc(NC(=O)CSc2nc(=O)[nH]c3c2CCCC3)cc1,inactive: -1.07%
19,CCOC(=O)COc1ccc([N+](=O)[O-])cc1-c1ccnc2cc(-c3ccc(Cl)cc3)nn12,inactive: -0.949%
20,Cc1ccccc1C(=O)Nc1sc2c(c1C(=O)NCc1ccco1)CCC(C(C)(C)C)C2 (stereo not given),inactive: -12.8%
21,COCCCNC(=O)c1oc2c(c1C)-c1nn(Cc3ccccc3Cl)cc1CC2,inactive: -5.9%
22,CNC(=O)C1CCC(Cn2c(=O)c3sccc3n(CC(=O)NCc3ccccc3)c2=O)CC1 (stereo not given),inactive: -10%
23,Cc1ccc(SCCNC(=O)CN(c2ccccc2)S(=O)(=O)N(C)C)cc1,inactive: -9.3%
24,Cc1cccc(-c2noc(-c3ccccc3OCC(=O)Nc3ccc([N+](=O)[O-])cc3)n2)c1,inactive: -3.38%

row,Compound,activation
1,CC(C)CC(=O)Nc1cccc(-c2nc3ccccc3[nH]2)c1,inactive: -9.27%
2,CCC1=Nc2cc(C(=O)NCCCOC)ccc2Sc2ccc(Br)cc21,inactive: -1.25%
3,COc1ccccc1CNc1nc(-c2ccco2)nn1S(=O)(=O)c1ccc2ccccc2c1,inactive: -1.03%
4,CCc1cnc2c(c1SCC(=O)c1ccccc1)c(=O)n(C)c(=O)n2C,inactive: -5.57%
5,CCC(=O)N1CCc2cc(Br)cc(S(=O)(=O)N3CCCC(C(=O)Nc4ccc(C(C)C)cc4)C3)c21 (stereo not given),inactive: 5.62%
6,CCOc1cc(C(=O)OCc2cc(=O)n3nc(CC)sc3n2)cc(OCC)c1OCC,inactive: -16.5%
7,CC1CCC(C(=O)NC(C(=O)OCC(=O)c2ccccc2)C(C)C)CC1 (stereo not given),inactive: -16.2%
8,CCN1CCc2nc3sc(C(=O)Nc4cccc(Cl)c4C)c(N)c3cc2C1,inactive: -10.9%
9,COc1ccc(-c2ccc(NS(=O)(=O)c3ccc(OC)c(OC)c3)cc2)nn1,inactive: -17%
10,Cc1scc2c1N(C(=O)CN1CCN(C)CC1)c1ccccc1NC2=O,inactive: -11.4%
11,CCOc1sc2nc(C)n(CC(=O)Nc3cccc(C)c3)c(=O)c2c1C,inactive: -18.9%
12,CCCCC(=O)N(c1ccc2oc(C)c(C(C)=O)c2c1)S(=O)(=O)c1ccc(F)cc1C,inactive: -34.3%
13,COc1ccc(OCc2nc3ccccc3n2Cc2ccccc2Cl)cc1,inactive: -5.35%
14,COC(=O)c1ccccc1NC(=O)c1c(C)oc2ncn(C)c(=O)c12,inactive: 0.027%
15,Cc1ccc(S(=O)(=O)NC2(C(F)(F)F)C(=O)Nc3c2c(=O)[nH]c(=O)n3-c2ccccc2)cc1 (stereo not given),inactive: -0.252%
16,Cc1ccc(CNS(=O)(=O)c2cc3[nH]c(=O)c(=O)[nH]c3cc2C)cc1,inactive: -4.66%
17,Cc1c(C(=O)NCc2cccc(Cl)c2)sc2nc3n(c(=O)c12)CCC3,inactive: -17.6%
18,O=C(COC(=O)c1cc(-c2ccccc2)nc2ccccc12)c1ccc(Br)cc1,inactive: -1.46%
19,Cc1ccc(C(=O)Nc2ccc3nc(SCC(=O)N4CCCc5ccccc54)sc3c2)cc1,inactive: -17.1%
20,CSc1nc2sc3c(c2c(=O)n1Cc1ccccc1)CCC(C(C)(C)C)C3 (stereo not given),inactive: -13%
21,O=S(=O)(c1ccc(Br)cc1)c1nnn2c1nc(N1CCOCC1)c1sccc12,inactive: -16.1%
22,NC(=O)c1nc(-c2ccc(F)c(F)c2)nc2c1[nH]c(=O)n2-c1cccc(Cl)c1,inactive: 1.18%
23,CCN1CCN(CCCNC(=O)c2cnn(-c3ccc(C)cc3C)c2C2CCN(C(=O)OC(C)(C)C)CC2)CC1,inactive: 22%
